# Measured values as given in patent US20250205362A1, “LIPID NANOPARTICLES” (NATIONAL UNIVERSITY CORPORATION HOKKAIDO UNIVERSITY, priority 2022, published 2025).
# At least one compound was matched to its structure with a doubt left.
# Key:
# [1] = Average particle diameter, PdI and zeta potential of lipid nanoparticles (dynamic light scattering); format: physicochemical
# Description: The mean particle diameter (number average value), ζ-mean particle diameter, and polydispersity index (PdI) of the lipid nanoparticles in PBS(−) (pH 7.4), as well as the zeta potential in 10 mM HEPES buffer (pH 7.4), were measured using an analyzing device, Zetasizer Nano ZS ZEN3600 (Malvern), which utilizes dynamic light scattering.
# [2] = Encapsulation rate of lipid nanoparticles (Ribogreen); format: physicochemical
# Description: The encapsulation rate of the lipid nanoparticles was calculated by measuring the amount of encapsulated nucleic acid (the amount of ssODN in the case of RNP-ssODN) using an RNA intercalator Ribogreen (manufactured by Life Technologies).
# TTR gene = assay: Measurement of TTR-KO activity (serum TTR protein, ELISA); format: in vivo, mouse; conditions: TTR-RNP-ssODN-loaded LNP, mouse serum 7 days after administration
# Description: Lipid nanoparticles encapsulating Cas9/sgTTR-RNP (Cas9/sgTTR-RNP-loaded lipid nanoparticles) were intravenously injected to BALB/c mice (female, 4 weeks old) at the indicated doses. One week after intravenous injection, the mice were euthanized, blood was collected, and serum was isolated by centrifugation. The TTR protein concentration in the serum was determined using a commercially available ELISA kit (Prealbumin ELISA Kit (mouse), Aviva Systems Biology) according to the manufacturer's protocol. The serum TTR protein concentration of untreated mice was taken as 100%, and the relative value (%) of the serum TTR protein concentration of mice administered with each lipid nanoparticle was taken as the knockout activity (TTR-KO activity) of the lipid nanoparticle.
# [3] = Fluc mRNA-loaded LNP, cationic lipid/DSPC/cholesterol/PEG-DMG 50/10/40/1.5 mol%, Table 5
# [4] = Fluc mRNA-loaded LNP, cationic lipid/DSPC/cholesterol/PEG-DMG 50/10/40/1.5 mol%, Table 6
# [5] = TTR-RNP-ssODN-loaded LNP (ssODN-TTR_3-40%), cationic lipid/DSPC/cholesterol/PEG-DMG 50/10/40/3.5 mol%, Table 17
# [6] = TTR-RNP-ssODN-loaded LNP (ssODN-TTR_3-40%), cationic lipid/DSPC/cholesterol/PEG-DMG 50/10/40/3.5 mol%, Table 8
# [7] = TTR-RNP-ssODN-loaded LNP in sucrose-containing Tris buffer, frozen sample (−80° C., thawed)
# [8] = TTR-RNP-ssODN-loaded LNP in sucrose-containing Tris buffer, non-frozen sample
# [9] = TTR-RNP-ssODN-loaded LNP, 50/10/40/3.5 mol%, Table 9 preparation
structure (smiles),measurement,setting,value
"CCCN(CCC)CCCCC(O)(CCCCCCOC(=O)CC1CCCCCC1)CCCCCCOC(=O)CC1CCCCCC1 [CL4F9-b, 7-(4-(dipropylamino)butyl)-7-hydroxytridecane-1,13-diylbis(2-cycloheptyl acetate)]",Number-average particle diameter,[1]; [3],135.0 nm
same,PdI,[1]; [3],0.150
same,ζ-average,[1]; [3],243.3 nm
same,ζ-potential,[1]; [3],−0.67 mV
same,Encapsulation rate,[2]; [3],31.5%
"CCCCC(CC)CCCCC(=O)OCCCCCCC(O)(CCCCCCOC(=O)CCCCC(CC)CCCC)CCCCN(CCC)CCC (centres unmarked) [CL4F10-e-2, 7-(4-(dipropylamino)butyl)-7-hydroxytridecane-1,13-diylbis(6-ethyldecanoate)]",Number-average particle diameter,[1]; [4],72.4 nm
same,PdI,[1]; [4],0.177
same,ζ-average,[1]; [4],129.9 nm
same,ζ-potential,[1]; [4],−2.17 mV
same,Encapsulation rate,[2]; [4],67.5%
"CCCN(CCC)CCCCC(O)(CCCCCCOC(=O)CCCCCC(C)CC(C)(C)C)CCCCCCOC(=O)CCCCCC(C)CC(C)(C)C (centres unmarked) [CL4F10-ζ-3(3), 7-(4-(dipropylamino)butyl)-7-hydroxytridecane-1,13-diylbis(7,9,9-trimethyldecanoate)]",Number-average particle diameter,[1]; [5],119.2 nm
same,PdI,[1]; [5],0.092
same,ζ-average,[1]; [5],160.0 nm
same,ζ-potential,[1]; [5],3.05 mV
same,Encapsulation rate,[2]; [5],58.4%
"CCCCCCCCC(CCCCCCCC)CC(=O)OCCCCCCC(O)(CCCCCCOC(=O)CC(CCCCCCCC)CCCCCCCC)CCCCN(CCC)CCC [CL4F11-b-8, 7-(4-(dipropylamino)butyl)-7-hydroxytridecane-1,13-diylbis(3-octylundecanoate)]",Number-average particle diameter,[1]; [3],50.5 nm
same,PdI,[1]; [3],0.235
same,ζ-average,[1]; [3],84.5 nm
same,ζ-potential,[1]; [3],−2.95 mV
same,Encapsulation rate,[2]; [3],95.5%
"CCCCCC(CCC)CCCCC(=O)OCCCCCCC(O)(CCCCCCOC(=O)CCCCC(CCC)CCCCC)CCCCN(CCC)CCC (centres unmarked) [CL4F11-e-3, 7-(4-(dipropylamino)butyl)-7-hydroxytridecane-1,13-diylbis(6-propylundecanoate)]",Number-average particle diameter,[1]; [4],39.6 nm
same,PdI,[1]; [4],0.273
same,ζ-average,[1]; [4],84.0 nm
same,ζ-potential,[1]; [4],−3.94 mV
same,Number-average particle diameter,[1]; [6],116.0 nm
same,PdI,[1]; [6],0.104
same,ζ-average,[1]; [6],162.5 nm
same,ζ-potential,[1]; [6],1.40 mV
same,Number-average particle diameter,[1]; [5],105.9 nm
same,PdI,[1]; [5],0.076
same,ζ-average,[1]; [5],140.2 nm
same,ζ-potential,[1]; [5],−1.01 mV
same,Number-average particle diameter,[1]; [7],110.2 nm
same,PdI,[1]; [7],0.036
same,ζ-average,[1]; [7],132.3 nm
same,ζ-potential,[1]; [7],−3.02 mV
same,Number-average particle diameter,[1]; [8],107.5 nm
same,PdI,[1]; [8],0.076
same,ζ-average,[1]; [8],134.5 nm
same,ζ-potential,[1]; [8],0.14 mV
same,Number-average particle diameter,[1]; [9],132.1 nm
same,PdI,[1]; [9],0.056
same,ζ-average,[1]; [9],163.4 nm
same,ζ-potential,[1]; [9],0.35 mV
same,serum TTR activity / gene knockout versus CL4F6,TTR gene; FIG. 5,lower serum TTR activity and higher gene knockout
same,Encapsulation rate,[2]; [4],91.3%
same,Encapsulation rate,[2]; [6],76.1%
same,Encapsulation rate,[2]; [5],80.1%
same,Encapsulation rate,[2]; [7],61.1%
same,Encapsulation rate,[2]; [8],67.1%
same,Encapsulation rate,[2]; [9],60.6%
"CCCN(CCC)CCCCC(O)(CCCCCCOC(=O)CCCCCCC(C)CC(C)(C)C)CCCCCCOC(=O)CCCCCCC(C)CC(C)(C)C (centres unmarked) [CL4F11-η-3(3), 7-(4-(dipropylamino)butyl)-7-hydroxytridecane-1,13-diylbis(8,10,10-trimethylundecanoate)]",Number-average particle diameter,[1]; [5],34.9 nm
same,PdI,[1]; [5],0.249
same,ζ-average,[1]; [5],150.7 nm
same,ζ-potential,[1]; [5],6.45 mV
same,Encapsulation rate,[2]; [5],80.4%
"CCCN(CCC)CCCCC(O)(CCCCCCOC(=O)CCCCCCCC(C)CC(C)(C)C)CCCCCCOC(=O)CCCCCCCC(C)CC(C)(C)C (centres unmarked) [CL4F12-e-3(3), 7-(4-(dipropylamino)butyl)-7-hydroxytridecane-1,13-diylbis(9,11,11-trimethyldodecanoate)]",Number-average particle diameter,[1]; [5],71.8 nm
same,PdI,[1]; [5],0.104
same,ζ-average,[1]; [5],103.0 nm
same,ζ-potential,[1]; [5],4.37 mV
same,Encapsulation rate,[2]; [5],80.6%
"CCCCCCC(CCCC)CCCCC(=O)OCCCCCCC(O)(CCCCCCOC(=O)CCCCC(CCCC)CCCCCC)CCCCN(CCC)CCC (centres unmarked) [CL4F12-e-4, 7-(4-(dipropylamino)butyl)-7-hydroxytridecane-1,13-diylbis(6-butyldodecanoate)]",Number-average particle diameter,[1]; [4],64.2 nm
same,PdI,[1]; [4],0.208
same,ζ-average,[1]; [4],107.5 nm
same,ζ-potential,[1]; [4],−2.46 mV
same,Number-average particle diameter,[1]; [7],105.5 nm
same,PdI,[1]; [7],0.017
same,ζ-average,[1]; [7],128.8 nm
same,ζ-potential,[1]; [7],1.37 mV
same,Number-average particle diameter,[1]; [8],91.2 nm
same,PdI,[1]; [8],0.126
same,ζ-average,[1]; [8],145.1 nm
same,ζ-potential,[1]; [8],−0.78 mV
same,Number-average particle diameter,[1]; [9],114.3 nm
same,PdI,[1]; [9],0.074
same,ζ-average,[1]; [9],150.0 nm
same,ζ-potential,[1]; [9],−0.94 mV
same,knockout activity,TTR gene; FIG. 6,excellent knockout activity
same,Encapsulation rate,[2]; [4],87.8%
same,Encapsulation rate,[2]; [7],76.8%
same,Encapsulation rate,[2]; [8],75.3%
same,Encapsulation rate,[2]; [9],66.8%
"CCCN(CCC)CCCCC(O)(CCCCCCOC(=O)CCCCCC(C)CCCC(C)C)CCCCCCOC(=O)CCCCCC(C)CCCC(C)C (centres unmarked) [CL4F12-ζ-2(2), 7-(4-(dipropylamino)butyl)-7-hydroxytridecane-1,13-diylbis(7,11-dimethyldodecanoate)]",Number-average particle diameter,[1]; [5],82.2 nm
same,PdI,[1]; [5],0.116
same,ζ-average,[1]; [5],125.3 nm
same,ζ-potential,[1]; [5],2.44 mV
same,Encapsulation rate,[2]; [5],67.1%
"CCCCC(CC)CCCCCCC(=O)OCCCCCCC(O)(CCCCCCOC(=O)CCCCCCC(CC)CCCC)CCCCN(CCC)CCC (centres unmarked) [CL4F12-η-2, 7-(4-(dipropylamino)butyl)-7-hydroxytridecane-1,13-diylbis(8-ethyldodecanoate)]",Number-average particle diameter,[1]; [5],77.2 nm
same,PdI,[1]; [5],0.138
same,ζ-average,[1]; [5],118.2 nm
same,ζ-potential,[1]; [5],3.16 mV
same,Encapsulation rate,[2]; [5],74.9%
"CCCN(CCC)CCCCC(O)(CCCCCCOC(=O)CCCCCCC(C)CCCC(C)C)CCCCCCOC(=O)CCCCCCC(C)CCCC(C)C (centres unmarked) [CL4F13-η-2(2), 7-(4-(dipropylamino)butyl)-7-hydroxytridecane-1,13-diylbis(8,12-dimethyltridecanoate)]",Number-average particle diameter,[1]; [5],55.3 nm
same,PdI,[1]; [5],0.132
same,ζ-average,[1]; [5],97.6 nm
same,ζ-potential,[1]; [5],0.28 mV
same,Encapsulation rate,[2]; [5],79.6%
"CCCN(CCC)CCCCC(O)(CCCCCCOC(=O)CC1CCCCCCCCCCC1)CCCCCCOC(=O)CC1CCCCCCCCCCC1 [CL4F14-b, 7-(4-(dipropylamino)butyl)-7-hydroxytridecane-1,13-diylbis(2-cyclododecyl acetate)]",Number-average particle diameter,[1]; [3],70.1 nm
same,PdI,[1]; [3],0.112
same,ζ-average,[1]; [3],98.6 nm
same,ζ-potential,[1]; [3],−2.43 mV
same,Encapsulation rate,[2]; [3],91.5%
"CCCN(CCC)CCCCC(O)(CCCCCCOC(=O)CC1CCCCCCCCCCCCCC1)CCCCCCOC(=O)CC1CCCCCCCCCCCCCC1 [CL4F17-b, 7-(4-(dipropylamino)butyl)-7-hydroxytridecane-1,13-diylbis(2-cyclopentadecyl acetate)]",Number-average particle diameter,[1]; [3],55.2 nm
same,PdI,[1]; [3],0.259
same,ζ-average,[1]; [3],90.5 nm
same,ζ-potential,[1]; [3],−2.40 mV
same,Encapsulation rate,[2]; [3],87.5%
